In article PMC4336329 (PLoS ONE, 2015):
Out of some 310,000 compounds screened, about 2,200 (0.71%) showed an effect of 50% or more. Effects have a minus sign here. This is one part of the list.

The molecules below were run against human ether-à-go-go-related gene (hERG) potassium channel (human, UniProt Q12809) (assay: primary screen, population patch clamp on CHO cells stably expressing hERG).
human ether-à-go-go-related gene (hERG) potassium channel, sequence (Q12809 whole entry, looked up): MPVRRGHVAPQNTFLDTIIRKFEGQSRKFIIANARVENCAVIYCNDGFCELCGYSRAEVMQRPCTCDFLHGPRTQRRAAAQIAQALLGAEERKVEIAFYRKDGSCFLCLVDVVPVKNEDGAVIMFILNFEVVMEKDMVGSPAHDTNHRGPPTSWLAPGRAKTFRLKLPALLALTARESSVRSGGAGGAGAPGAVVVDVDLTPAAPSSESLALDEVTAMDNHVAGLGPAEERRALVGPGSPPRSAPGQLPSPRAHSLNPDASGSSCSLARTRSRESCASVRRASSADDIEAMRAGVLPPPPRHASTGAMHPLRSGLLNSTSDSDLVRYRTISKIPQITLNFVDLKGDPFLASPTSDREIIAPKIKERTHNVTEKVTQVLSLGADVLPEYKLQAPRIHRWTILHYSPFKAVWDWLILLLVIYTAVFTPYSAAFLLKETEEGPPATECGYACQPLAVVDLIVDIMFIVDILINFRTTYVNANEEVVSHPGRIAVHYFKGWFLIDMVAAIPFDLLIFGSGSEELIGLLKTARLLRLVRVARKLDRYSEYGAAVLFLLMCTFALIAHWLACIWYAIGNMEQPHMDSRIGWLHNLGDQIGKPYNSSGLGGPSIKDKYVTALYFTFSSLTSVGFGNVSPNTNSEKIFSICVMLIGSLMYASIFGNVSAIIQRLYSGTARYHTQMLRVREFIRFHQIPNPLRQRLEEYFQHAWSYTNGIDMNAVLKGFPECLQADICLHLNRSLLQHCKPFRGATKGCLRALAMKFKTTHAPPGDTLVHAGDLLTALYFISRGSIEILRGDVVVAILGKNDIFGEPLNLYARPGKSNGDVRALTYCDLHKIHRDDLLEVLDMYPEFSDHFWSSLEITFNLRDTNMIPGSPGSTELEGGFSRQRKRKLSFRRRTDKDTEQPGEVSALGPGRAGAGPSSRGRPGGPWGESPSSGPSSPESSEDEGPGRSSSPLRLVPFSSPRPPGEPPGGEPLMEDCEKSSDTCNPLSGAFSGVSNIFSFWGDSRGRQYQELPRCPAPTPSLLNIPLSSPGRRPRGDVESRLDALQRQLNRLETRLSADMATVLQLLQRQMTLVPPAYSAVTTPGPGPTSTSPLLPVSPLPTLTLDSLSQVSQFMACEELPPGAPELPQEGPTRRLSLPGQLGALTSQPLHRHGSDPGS

SMILES | hERG current change (%, negative = inhibition) at 1uM [%]
CN(C)c1ccc(C=Nc2ccccc2C(N)=O)cc1 | 5.28
O=C(N=C1SC2CS(=O)(=O)CC2N1c1ccccc1)C1CCCCC1 (stereo not shown) | 16
Cc1ccc(NS(=O)(=O)c2ccc(C(=O)N3CCN(c4ccccn4)CC3)cc2)cc1 | 19.6
CCCn1nnnc1NCc1ccc(SC)cc1 | 10.6
Cc1cccc(CSc2nn3c(=O)c(C)nnc3s2)c1 | 7.26
O=C(C1=C(O)C(=O)N(c2ccccc2)C1c1ccc([N+](=O)[O-])cc1)c1cccs1 (stereo not shown) | 12.8
Cc1ccc(C(=O)COC(=O)C(C)N2C(=O)C3C4C=CC(C4)C3C2=O)cc1C (stereo not shown) | 15.5
c1ccc(CNCCN2CCNCC2)nc1 | 8.67
COc1cccc(C2Nc3ccccc3C(=O)N2c2ccc(F)cc2)c1O (stereo not shown) | 9.45
COc1ccc(C(=O)N/N=C(\C)CC(=O)NC2CCCCC2)c(OC)c1 | 4.88
COc1ccc(C2/C=C\CN(S(=O)(=O)c3cccc4cccnc34)CC(=O)N2Cc2ccc(F)cc2)cc1 (stereo not shown) | 11.4
COc1ccc(/C=C/C(=O)NCCCNC(=O)/C=C/c2ccc(OC)c(OC)c2)cc1OC | -1.09
O=C(COc1coc(CN2CCc3ccccc3C2)cc1=O)Nc1cccc(Cl)c1 | 10.6
CC1CCN(C(=O)C2CCN(S(=O)(=O)c3cccc4nonc34)CC2)CC1 | -6.88
CCOc1ccc2[nH]c(C(=O)N/N=C/c3cccc(OC)c3OC)cc2c1 | 7.16
O=C(c1cccs1)c1cn(CC(=O)N2CCc3ccccc3C2)c2ccccc12 | 8.36
O=C(Oc1ccc(Cl)cc1)N1CCCCC1 | 3.2
O=C(Nc1ccc(Br)cc1)c1ccc(CSC2=NCCS2)cc1 | 7.38
CN(Cc1ccccc1)c1ccc(C(CC(N)=O)NC(=O)Cc2cccc3ccccc23)cc1[N+](=O)[O-] (stereo not shown) | -5.26
Cc1sc(NC(=O)c2ccco2)c(C(c2cccnc2)N2CCC(C)CC2)c1C (stereo not shown) | 11.6
O=C(O)c1cc(-c2cc(C(=O)O)c3ccccc3n2)nc2ccccc12 | 12.2
COc1ccc(CCNC(=O)CCN2C(=O)C(C)Oc3ccc(C)cc32)cc1OC (stereo not shown) | 5.74

SMILES | hERG current change (%, negative = inhibition) at 1uM [%]
COc1cccc(NC(=S)N(CCN(C)C)C(C)c2ccncc2)c1 (stereo not shown) | -9.71
CC(C)OC(=O)CCNc1n[nH]c(=O)[nH]c1=O | 4.38
O=C(Sc1nnnn1C1CCCCC1)c1cccs1 | 2.01
Cc1ccc(NC(=S)NCCN(C2CCCCC2)C2CCCC2)cc1C | -2.62
O=C(COC(=O)c1ccc(S(=O)(=O)Nc2ccccc2)cc1)NCCC1=CCCCC1 | 13
Cc1ccc(SCc2cc(=O)[nH]c(/N=C(\N)Nc3cccc4ccccc34)n2)cc1 | 11.4
Cc1ccc2c(c1)C(c1ccccc1)N(C(=O)c1ccc3c(c1)OCO3)CC(=O)N2 (stereo not shown) | -8.28
COc1ccc(OC)c(N2C(N)=NC(N)=NC23CCCC3)c1.Cl | 21.9
Cn1nnnc1SCCNC(=O)C1CCC(=O)N(CCc2cccc(F)c2)C1 (stereo not shown) | 13
Cn1ccc(C(=O)OCC(=O)Nc2cccc(Cl)c2)n1 | 5.92
Cc1nc2ncnn2c(C)c1CCC(=O)N1CCOCC1 | 0.233
CCOc1ccccc1C(=O)Nc1cccc(-c2ccc3nncn3n2)c1 | -2.73
Cc1nn(-c2ccccc2)c2[nH]c(=O)c(CNCc3ccc4c(c3)OCO4)cc12 | -7.2
O=C(Cc1ccc([N+](=O)[O-])cc1)NCc1ccccc1Cl | 7.97
Cc1ccc(NC(=O)CSc2nnc3ccc(-c4cccnc4)nn23)cc1 | -6.78
CC(C)(C)OC(=O)NCCCC[C@H](NC(=O)c1nc[nH]c1C(=O)N1CCN(C(=O)OC(C)(C)C)CC1)C(=O)OC(C)(C)C | 12.1
COc1ccc(S(=O)(=O)N(CC(=O)NCC2CCCO2)Cc2ccccc2)cc1C (stereo not shown) | -3.83
CC(C)(C)c1ccc(OCCNC(=S)NC(=O)c2cccnc2)cc1 | 1.55
CCCN1CCN(c2ncnc3scc(C4COc5ccccc5O4)c23)CC1 (stereo not shown) | -3.01
Oc1oc(-c2ccccc2)nc1C=Nc1ccccc1 | 4.36
O=C(Nc1ccc(F)cc1)c1cccc(NC(=O)C2C3CC4OC(=O)C2C4C3)c1 (stereo not shown) | 16.4
